{
  "source": "the supplement of paper PMC10338343",
  "note": "± gives the standard deviation. The list shows a part of the results, in another mix than the full data.",
  "data": [
    {"test_system": "MIWI (PIWIL1) piRISC loaded with piRNA #1 (30 nt)", "assay": "pre-steady-state target cleavage rate (min^-1); MIWI and MILI are mouse PIWI proteins and EfPiwi is from a freshwater sponge; tags in brackets are library labels; higher = faster piRNA-guided slicing of the target", "conditions": "guide: piRNA #1 5'p-UGAGGUAGUAGGUUGUAUAGUAUCCAGAGG; auxiliary factor: 500 nM mouse GTSF1", "summary_of_the_method": "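In Cleave-'n-Seq, a transcribed, DNA-blocked target RNA library (0.1 nM) was combined with 1 nM active affinity-purified piRISC bearing one synthetic guide, with or without 500 nM GTSF1 partner protein. Reactions ran in HEPES–potassium acetate buffer at 33 °C for 0–8 or 0–960 min. Uncleaved targets were sequenced and normalised to depth and to weakly complementary targets, three trials were pooled, and k3 was capped at 0.0001 min^-1. The pre-steady-state cleavage rate was obtained by fitting a burst-and-steady-state model.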", "values": [
      {"sequence": "GGUCUGGAUACUAUACAACCUACUACCUUCA", "pre-steady-state target cleavage rate": "1.13 ± 0.083"},
      {"sequence": "GGAGAGGAAACUAUACAACCUACUACCUGA", "pre-steady-state target cleavage rate": "0.256 ± 0.037"},
      {"sequence": "GGAGACCUAUCUAUACAAGCUACUAGCUCA", "pre-steady-state target cleavage rate": "0.198 ± 0.028"},
      {"sequence": "GCUCUGGAUGACUAUACAACCUACUACCUCA", "pre-steady-state target cleavage rate": "1.1 ± 0.09"},
      {"sequence": "GGAGACGAUACUAUACAACCUACAUGCUCA", "pre-steady-state target cleavage rate": "0.166 ± 0.03"},
      {"sequence": "GCUCUGAGAUACUAUACAACCUACUACCUCA", "pre-steady-state target cleavage rate": "2.07 ± 0.12"},
      {"sequence": "GGAGACGAUUCUAUACAAGCUACUACCUCA", "pre-steady-state target cleavage rate": "1.12 ± 0.065"},
      {"sequence": "GCUCUGGAUAGUAUACAACCUACUACCUCA", "pre-steady-state target cleavage rate": "1.04 ± 0.051"},
      {"sequence": "GCUCUGGGUACUAUACAACCUACUACCUCA", "pre-steady-state target cleavage rate": "1.76 ± 0.091"},
      {"sequence": "GGAGACGAUACUAUAGAACCUAGUACCUCA", "pre-steady-state target cleavage rate": "0.00875 ± 0.0044"},
      {"sequence": "GGAGACCAUACUAUACAACGUACAACCUCA", "pre-steady-state target cleavage rate": "0.161 ± 0.03"},
      {"sequence": "GGAGUGGAUACUUUACAACCUACUUCCUCA", "pre-steady-state target cleavage rate": "0.00478 ± 0.0019"},
      {"sequence": "GGAGACCUAUGUAUACAACCUACUACCUGA", "pre-steady-state target cleavage rate": "0.0678 ± 0.013"},
      {"sequence": "GGAGACCAUACUAUACAACCUACAUGGAGA [g8:g23:cont:t1A]", "pre-steady-state target cleavage rate": "0.026 ± 0.01"},
      {"sequence": "GGAGUCGAUACUAUACAACCUACUACCUCA", "pre-steady-state target cleavage rate": "1.47 ± 0.091"},
      {"sequence": "GGAGACCUAACUAUACAACCUACUACUCUCA", "pre-steady-state target cleavage rate": "1.09 ± 0.09"},
      {"sequence": "GGACUGGAUACUAAACAACCUACUACCACA", "pre-steady-state target cleavage rate": "0.639 ± 0.063"},
      {"sequence": "GCUCUGGAUACUUUACAACCUACUACCUGA", "pre-steady-state target cleavage rate": "0.746 ± 0.1"},
      {"sequence": "GGAGACCUAACUAUAUCAACCUACUACCUCA", "pre-steady-state target cleavage rate": "0.00536 ± 0.0033"},
      {"sequence": "GCUCUGGAUACUAUACAUGCUACUACCUCA", "pre-steady-state target cleavage rate": "0.929 ± 0.054"},
      {"sequence": "GGAGACCAUACUAUACAACCUUCUACCUGA", "pre-steady-state target cleavage rate": "0.243 ± 0.03"},
      {"sequence": "GGAGACCUUACUAUACAACCUAGUACGUCA", "pre-steady-state target cleavage rate": "0.2 ± 0.041"},
      {"sequence": "GGAGACCAUUCUAUUCAACCUACUACCUCA", "pre-steady-state target cleavage rate": "0.548 ± 0.058"},
      {"sequence": "GGAGACCUAACUAUACAACCUACUACCCCA", "pre-steady-state target cleavage rate": "0.867 ± 0.099"},
      {"sequence": "GGAGACGAUACUAUACUACCUACUACCUCA", "pre-steady-state target cleavage rate": "1.33 ± 0.075"},
      {"sequence": "GGAGACCAUAGUAUACAUCCUACUACCUCA", "pre-steady-state target cleavage rate": "0.344 ± 0.036"},
      {"sequence": "GGACUGGAUACUAUACAACCUACAUGGAGA [g8:g27:cont:t1A]", "pre-steady-state target cleavage rate": "< 0.0001"},
      {"sequence": "GGAGAGGAUACUAUACCAACCUACUACCUCA", "pre-steady-state target cleavage rate": "0.0425 ± 0.012"},
      {"sequence": "GGAGACCUUACUAUAUCAACCUACUACCUCA", "pre-steady-state target cleavage rate": "0.0244 ± 0.0056"},
      {"sequence": "GGAGACCUAUCUAUACAACCUACAUACCUCA", "pre-steady-state target cleavage rate": "0.313 ± 0.043"},
      {"sequence": "GGAGACCUUACUAAACAUCCUACUACCUCA", "pre-steady-state target cleavage rate": "0.3 ± 0.036"},
      {"sequence": "GGAGACCAUACUAUACAAGCUACUACGUCA", "pre-steady-state target cleavage rate": "0.572 ± 0.034"},
      {"sequence": "GCUCUGGAUACUAUACAACCUACUUGGUCA", "pre-steady-state target cleavage rate": "0.0102 ± 0.0042"},
      {"sequence": "GGAGUGGAUACUAUACAACCUUGUACCUCA", "pre-steady-state target cleavage rate": "0.0454 ± 0.0079"},
      {"sequence": "GCUCAGGAUACUAUACUACCUACUACCUCA", "pre-steady-state target cleavage rate": "1.54 ± 0.093"},
      {"sequence": "GGAGUCGAUUCUAUACAACCUACUACCUCA", "pre-steady-state target cleavage rate": "1.59 ± 0.097"},
      {"sequence": "GGAGACCUUACUAUACAACCUACCACCUCA", "pre-steady-state target cleavage rate": "0.847 ± 0.06"},
      {"sequence": "GGAGACCUAUGAUAUGUUCCUACUACUCA", "pre-steady-state target cleavage rate": "< 0.0001"},
      {"sequence": "GGAGUGGAUACUAUAGAAGCUACUACCUCA", "pre-steady-state target cleavage rate": "0.795 ± 0.039"},
      {"sequence": "GGUCUGGAUACAAUUCAACCUACUACCUCA", "pre-steady-state target cleavage rate": "1.44 ± 0.11"}
    ]}
  ]
}
